Consider 172 sequences from publication PMC4242493.

The other results are listed elsewhere or left out. The list includes weakly bound sequences.

This assay has as its target MaxL homodimer (UniProt P61244). Briefly: universal protein-binding microarray (PBM). The settings on record: PBS-based mixture, 10 nM His-tagged protein dimer, 2% milk, 200 ng/uL BSA, 50 ng/uL salmon testes DNA, 0.02% TX-100; detection with Alexa 488 anti-His …; high values mean tight binding; most listed sequences are background and not binding sites; double strand, one strand shown.
Chain of UniProt P61244 (P61244 whole entry): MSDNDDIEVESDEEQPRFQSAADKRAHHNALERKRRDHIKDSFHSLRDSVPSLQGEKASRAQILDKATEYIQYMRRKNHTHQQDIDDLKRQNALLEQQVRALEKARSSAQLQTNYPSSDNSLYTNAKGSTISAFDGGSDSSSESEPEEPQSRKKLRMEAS
Turning to CCGTGCCA, the binding signal (normalized occupancy) worked out at 0.0772.
As for CAGATTAC, the binding signal (normalized occupancy) is 0.0759.
As for ACGGAGAT, the binding signal (normalized occupancy) came out at 0.075.
In the case of CTCTAACA, the binding signal (normalized occupancy) is 0.0777.
For GAGAGTGA the value was 0.0766; for AGAGAAGG, 0.0701; for ACTGTATG, 0.0769.
For GGAATTAA the value was 0.0765; for CAGGTAAC, 0.0729; for CGTTAGAA, 0.0775.
Then CATCTTAC, with 0.0803; and TAAGCCTA, with 0.0687.
Regarding ACGGGCTG, the binding signal (normalized occupancy) is 0.0708.
Consider GACGCGCA, for which the binding signal (normalized occupancy) came out at 0.0689.
Regarding CCGCCTGA, the binding signal (normalized occupancy) was found to be 0.0792.
In the case of AGATGGAA, the binding signal (normalized occupancy) worked out at 0.0827.
Take ATATAATA: the binding signal (normalized occupancy) came out at 0.0802.
Consider CGCTGGGC, for which the binding signal (normalized occupancy) was 0.0691.
Turning to ATCCGAAT, the binding signal (normalized occupancy) is 0.078.
For CCATTGAC the value was 0.0772; for AACAGGGC, 0.0734; for CAAAGTAC, 0.0725.
GCATCGAC: the binding signal (normalized occupancy) is 0.074.
As for CTGTAGTC, the binding signal (normalized occupancy) stood at 0.073.
Turning to CGCCCAAG, the binding signal (normalized occupancy) turned out to be 0.0681.
Then CGATCCAA, with 0.0721; and CGCCGGAG, with 0.0692; and GACCAGAA, with 0.0778.
Then GAGCCCCA, with 0.0691; and CAATGAAC, with 0.0733; and ATACATAC, with 0.0912.
Then GCGAGTGA, with 0.0741.
For the sequence AGCGACGG, the binding signal (normalized occupancy) was found to be 0.0683.
As to ACTCTACA, the binding signal (normalized occupancy) was determined as 0.0806.
Then ATCCTCAC, with 0.0798; and ACTAACCA, with 0.075.
For CAAGCTCC the value was 0.0732; for TGCCCGCA, 0.0797.
Then ACATCTGA, with 0.0827; and CTAACCAG, with 0.0756.
For CCTTCAGA, the binding signal (normalized occupancy) amounted to 0.0732.
Take CCCCAGAA: the binding signal (normalized occupancy) was determined as 0.073.
For the sequence ATCGCTGC, the binding signal (normalized occupancy) is 0.0671.
For CCACAGCG the value was 0.0735; for GGACGCCA, 0.0682; for AGACAGCG, 0.0705.
For AAGCTATC the value was 0.0722; for CCGAGAGA, 0.0728; for GCTCCGAA, 0.0665.
For AATAGAAT the value was 0.0817.
Regarding CGCGTGCA, the binding signal (normalized occupancy) is 0.134.
For CGCGAGAG, the binding signal (normalized occupancy) was 0.0695.
Then ACCCAACT, with 0.075.
For AATTGGCC the value was 0.0709; for AGATACCG, 0.0745; for CATCAGGC, 0.0794.
In the case of CGCTCTAC, the binding signal (normalized occupancy) is 0.0758.
Then CAGAAGGA, with 0.0718; and AGCATTTC, with 0.0792.
Then CATATCGG, with 0.0831; and GAAAAATC, with 0.0723.
For ATAATGGA the value was 0.0776.
Take ATTTCAAG: the binding signal (normalized occupancy) worked out at 0.0781.
For TATAGAGA the value was 0.0759; for CAGATGCG, 0.078.
Then GCCAGGGA, with 0.0703.
Turning to CGGCAACA, the binding signal (normalized occupancy) was 0.073.
Consider GTTCAAAA, for which the binding signal (normalized occupancy) amounted to 0.0725.
For ATAGTTTG the value was 0.0788.
Then AAGAATTG, with 0.0747; and AACGCACG, with 0.091; and AATTCTAT, with 0.0792.
For GACTACGC the value was 0.0668; for GCGCGTAC, 0.0739.
As to ACATGTGA, the binding signal (normalized occupancy) was determined as 0.166.
With ATTATCTG, the binding signal (normalized occupancy) stood at 0.0764.
For AATTTTCT the value was 0.0797; for GTGTTGAA, 0.0821; for AACACTGA, 0.0741.
Consider AGACTAAC, for which the binding signal (normalized occupancy) came to 0.0681.
In the case of CGACCTGA, the binding signal (normalized occupancy) was 0.0681.
For CTGCTATA the value was 0.0783.
As to CGGTTAAG, the binding signal (normalized occupancy) stood at 0.074.
As for CGACAACG, the binding signal (normalized occupancy) worked out at 0.076.
Then ACGTGGCA, with 0.106; and GAGGTATA, with 0.0827; and ACTTTCGG, with 0.074.
Then GCGGCTAA, with 0.0707; and AGCGCGCA, with 0.0759; and AAGAGGAA, with 0.0726.
For TAAGGCGA, the binding signal (normalized occupancy) is 0.071.
For ACAGCAGG the value was 0.0789; for AGACCCTA, 0.077; for GCGCGTAA, 0.0693.
For ACGCAATA, the binding signal (normalized occupancy) was determined as 0.0791.
Then ATCTGACC, with 0.077.
Then CGTGGCGA, with 0.0802; and AGTAAACG, with 0.0757; and GAAAAACC, with 0.0722.
For AAGGCACA the value was 0.0777.
As to ACGATATC, the binding signal (normalized occupancy) was found to be 0.0848.
For the sequence CAAGTCTA, the binding signal (normalized occupancy) was found to be 0.0723.
For ACTCCTGA the value was 0.0729; for CCTCAAGC, 0.0684; for GGAAACCC, 0.073.
CGTGGAAG: the binding signal (normalized occupancy) came to 0.0832.
Then CGTCGATC, with 0.0811.
For CGCACCCA, the binding signal (normalized occupancy) came out at 0.0884.
With GAAGTCGC, the binding signal (normalized occupancy) was 0.0706.
With AAGGACTT, the binding signal (normalized occupancy) amounted to 0.0685.
Then ATTCCTTA, with 0.0724.
For TGCGAAAA the value was 0.0775.
For ACGACCGC the value was 0.0723.
Consider ATAATAAT, for which the binding signal (normalized occupancy) stood at 0.0821.
With AAAGTGCC, the binding signal (normalized occupancy) turned out to be 0.0697.
For the sequence TAGTCCAA, the binding signal (normalized occupancy) turned out to be 0.0694.
Then TACTCAGA, with 0.0681; and CATCTGAA, with 0.0795.
Then GGGCACAA, with 0.0742; and GGTCGTCA, with 0.0812; and AATGACGT, with 0.0758.
In the case of AGGCGAGG, the binding signal (normalized occupancy) was 0.0752.
Then CACCTACA, with 0.0819.
Then ATAAAAAT, with 0.0776; and ATTATCGA, with 0.0803.
For GACGACAC the value was 0.0774.
On to ATGGAACC, for which the binding signal (normalized occupancy) was determined as 0.0764.
Turning to ACGAGTGG, the binding signal (normalized occupancy) is 0.0794.
Take ATTGACGG: the binding signal (normalized occupancy) is 0.0726.
Regarding AATAATGG, the binding signal (normalized occupancy) worked out at 0.0765.
Then TCTGTCCA, with 0.0754; and AAGCAAGT, with 0.0756.
Regarding CGCATTTA, the binding signal (normalized occupancy) came out at 0.0786.
For the sequence AACTCTCA, the binding signal (normalized occupancy) stood at 0.074.
Then AGACGCCC, with 0.0726; and AGGGCGAT, with 0.0749.
Then GAGTACTC, with 0.0712; and CGCAGAGA, with 0.0699; and TACAGGAA, with 0.0731.
Then ATAACAAT, with 0.0814; and GTGCTGTA, with 0.0779; and TAAACTTA, with 0.0771.
For the sequence GAAATGAC, the binding signal (normalized occupancy) came to 0.0757.
For AGACACCA the value was 0.0749.
As to GTTTGCAA, the binding signal (normalized occupancy) turned out to be 0.0755.
For the sequence GATGCGTA, the binding signal (normalized occupancy) came to 0.0807.
Then CCCCACCA, with 0.0825; and AAGTCAAA, with 0.0697; and AGTAACCG, with 0.0699.
For the sequence GATCTGAA, the binding signal (normalized occupancy) is 0.0712.
For GGACGGTA the value was 0.0722.
For the sequence GGTTAGAC, the binding signal (normalized occupancy) was determined as 0.0736.
For TACTAAGA, the binding signal (normalized occupancy) turned out to be 0.0738.
Regarding ACTCCAGA, the binding signal (normalized occupancy) stood at 0.0722.
In the case of TCTCATAA, the binding signal (normalized occupancy) is 0.0868.
For the sequence ATTTCAGG, the binding signal (normalized occupancy) was 0.0722.
For TGCGCCCA the value was 0.0758; for CTCAACAG, 0.0686.
Then CAGGAGCC, with 0.0659; and GAGATCTC, with 0.0803; and GCTCGATA, with 0.0734.
Then CGCCAGCA, with 0.0729.
For GAGTTTAA, the binding signal (normalized occupancy) worked out at 0.0756.
Take TACCAGTA: the binding signal (normalized occupancy) stood at 0.0728.
In the case of GAGGATGA, the binding signal (normalized occupancy) worked out at 0.0805.
In the case of ACGTGAGT, the binding signal (normalized occupancy) was 0.0893.
Take CGATACAG: the binding signal (normalized occupancy) came to 0.0757.
Then TACGACTA, with 0.0729; and AAACTCGG, with 0.0739; and ATCGCGAA, with 0.0663.
For AGTGCCGA the value was 0.0674; for ACCCCGAC, 0.0726.
